In PMC4336329 (PLoS ONE, 2015):
About 2,200 (0.71%) of roughly 310,000 compounds showed an effect of 50% or more. The effect is printed as a negative number. This is one part of the list.

The molecules below were run against human ether-à-go-go-related gene (hERG) potassium channel (human, UniProt Q12809) (assay: primary screen, population patch clamp on CHO cells stably expressing hERG).
Sequence of human ether-à-go-go-related gene (hERG) potassium channel (Q12809 whole entry, looked up): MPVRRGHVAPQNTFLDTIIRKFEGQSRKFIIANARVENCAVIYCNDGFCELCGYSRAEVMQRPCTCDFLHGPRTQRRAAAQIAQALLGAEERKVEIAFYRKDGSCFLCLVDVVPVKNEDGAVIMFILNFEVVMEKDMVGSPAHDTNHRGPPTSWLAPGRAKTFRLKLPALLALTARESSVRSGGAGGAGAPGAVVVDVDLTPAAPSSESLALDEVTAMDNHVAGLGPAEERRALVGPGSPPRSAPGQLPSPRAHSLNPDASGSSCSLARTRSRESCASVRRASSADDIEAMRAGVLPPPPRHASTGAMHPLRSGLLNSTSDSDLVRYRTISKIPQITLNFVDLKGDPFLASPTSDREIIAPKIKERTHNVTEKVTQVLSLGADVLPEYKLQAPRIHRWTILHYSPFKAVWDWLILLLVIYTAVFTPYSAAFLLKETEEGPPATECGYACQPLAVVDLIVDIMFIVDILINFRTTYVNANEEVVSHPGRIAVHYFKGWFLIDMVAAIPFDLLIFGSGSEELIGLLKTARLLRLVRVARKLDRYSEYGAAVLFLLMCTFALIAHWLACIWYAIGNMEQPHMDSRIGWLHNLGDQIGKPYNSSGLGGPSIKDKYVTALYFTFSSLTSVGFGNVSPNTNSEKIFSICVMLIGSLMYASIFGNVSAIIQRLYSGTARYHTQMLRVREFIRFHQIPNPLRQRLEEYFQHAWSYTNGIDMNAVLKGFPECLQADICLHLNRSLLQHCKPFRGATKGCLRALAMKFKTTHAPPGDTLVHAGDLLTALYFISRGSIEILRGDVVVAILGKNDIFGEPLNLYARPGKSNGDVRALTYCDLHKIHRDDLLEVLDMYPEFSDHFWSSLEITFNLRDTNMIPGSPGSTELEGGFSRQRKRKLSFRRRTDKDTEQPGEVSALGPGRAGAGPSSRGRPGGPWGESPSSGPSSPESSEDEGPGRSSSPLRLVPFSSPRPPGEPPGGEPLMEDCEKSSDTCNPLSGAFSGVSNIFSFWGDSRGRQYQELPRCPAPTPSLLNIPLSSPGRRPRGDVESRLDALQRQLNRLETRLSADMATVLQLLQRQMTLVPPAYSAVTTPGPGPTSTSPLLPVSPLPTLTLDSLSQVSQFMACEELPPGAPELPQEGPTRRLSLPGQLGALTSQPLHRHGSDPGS
`Cc1ccc(-n2c(O)c(C=NCc3cccnc3)c(=O)[nH]c2=O)cc1C` was tested, and the “hERG current change (%, negative = inhibition) at 1uM” value was 8.61%.
With `CCOC(=O)C1=C(C)Nc2ccccc2N=C1NC(=O)c1ccc(Cl)c(S(=O)(=O)N2CCCC2)c1` the “hERG current change (%, negative = inhibition) at 1uM” value was 3.92%.
With `C/C(=C\C(=O)c1ccc(Br)cc1)NCc1ccc2c(c1)OCO2` the “hERG current change (%, negative = inhibition) at 1uM” value was 5.64%.
With `C/C(=N/NC(=O)CCC(=O)Nc1ccc(Br)cc1)c1ccc(Br)cc1` the “hERG current change (%, negative = inhibition) at 1uM” value was 5.74%.
With `COc1cccc(NC(=O)CN(C)C(=O)c2ccc3ccccc3c2)c1` the “hERG current change (%, negative = inhibition) at 1uM” value was 5.88%.
`COc1ccc(Cc2n[nH]c(=S)n2NC(=O)Nc2ccc(Cl)c(Cl)c2)cc1` was tested, and the “hERG current change (%, negative = inhibition) at 1uM” value was 10.2%.
With `CC(=O)C1=C(O)C(=O)OC1c1ccc(C)cc1` (centres unmarked) the “hERG current change (%, negative = inhibition) at 1uM” value was 22.7%.
In the case of `C/C(Cn1nc([N+](=O)[O-])cc1C)=N\NC(=O)COc1ccc(Cl)cc1Cl`, the “hERG current change (%, negative = inhibition) at 1uM” value is reported as -51.3%.
`COc1ccc(S(=O)(=O)N2CCC(C(=O)NCc3ccccn3)CC2)cc1OC` was tested, and the “hERG current change (%, negative = inhibition) at 1uM” value was 1.82%.
With `COc1ccc(S(=O)(=O)NCc2ccccn2)cc1NC(=O)c1ccccc1` the “hERG current change (%, negative = inhibition) at 1uM” value was 14.8%.
`O=C(CCN1C(=O)/C(=C\C=C\c2ccccc2)SC1=S)Nc1ccccc1C(=O)O` was tested, and the “hERG current change (%, negative = inhibition) at 1uM” value was -2.02%.
For `CCCn1c(SCC(=O)Nc2cc(Cl)ccc2OC)nc(O)cc1=O`, the “hERG current change (%, negative = inhibition) at 1uM” value was 3.88%.
In the case of `Nc1cc(-c2ccccc2)nn1S(=O)(=O)c1ccc(F)cc1`, the “hERG current change (%, negative = inhibition) at 1uM” value is reported as 8.6%.
With `CN(C)c1nnnn1-c1ccc(Cl)cc1` the “hERG current change (%, negative = inhibition) at 1uM” value was 4.98%.
For `COc1ccc2c(c1)[nH]c1c(N3CCSCC3)ncnc12`, the “hERG current change (%, negative = inhibition) at 1uM” value was 6.58%.
For `COc1cccc(/C=N/NC(=O)C(=O)N/N=C/c2cccc(OC)c2OC)c1OC`, the “hERG current change (%, negative = inhibition) at 1uM” value was 8.07%.
With `CN(C)Cc1cc(O)c(CN(C)C)cc1O` the “hERG current change (%, negative = inhibition) at 1uM” value was 14.7%.
In the case of `O=C(COC(=O)CCc1nc2ccccc2c(=O)[nH]1)Nc1ccc(N2CCOCC2)cc1`, the “hERG current change (%, negative = inhibition) at 1uM” value is reported as -0.012%.
`O=C(C[n+]1ccc(-c2nnc3n2CCC3)cc1)c1ccc(Cl)c(Cl)c1.[Br-]` was tested, and the “hERG current change (%, negative = inhibition) at 1uM” value was -4.73%.
For `CC(C)C(=O)Nc1cc(S(=O)(=O)Nc2ccc(Cl)cc2)ccc1Cl`, the “hERG current change (%, negative = inhibition) at 1uM” value was 9.57%.
For `O=C(Nc1nc(-c2ccccn2)cs1)c1cc(Cl)ccc1[N+](=O)[O-]`, the “hERG current change (%, negative = inhibition) at 1uM” value was 12.5%.
With `O=C(NCc1ccc2c(c1)OCO2)C(=O)NCC1OCCCN1S(=O)(=O)c1ccc(F)cc1` (centres unmarked) the “hERG current change (%, negative = inhibition) at 1uM” value was 8.73%.
For `COC(=O)C(NC(=O)COc1ccccc1)(Nc1nc2c(s1)CCCC2)C(F)(F)F` (centres unmarked), the “hERG current change (%, negative = inhibition) at 1uM” value was 10.9%.
In the case of `Cc1ccc(S(=O)(=O)Nc2ccccc2CNc2cccc(C)n2)cc1`, the “hERG current change (%, negative = inhibition) at 1uM” value is reported as 0.616%.
In the case of `Cc1ccc2c(c1)C(c1ccncc1)=NNC(c1cccnc1)=N2`, the “hERG current change (%, negative = inhibition) at 1uM” value is reported as -2.36%.
In the case of `CC(C)(C)NC(=O)CSc1nnc(NC(=O)CCn2cnc3ccccc3c2=O)s1`, the “hERG current change (%, negative = inhibition) at 1uM” value is reported as 15%.
For `COc1cc(-c2[nH]ncc2CN(C)Cc2nonc2C)cc(OC)c1OC`, the “hERG current change (%, negative = inhibition) at 1uM” value was 2.33%.
In the case of `CCNC(=O)C1Cc2cc(S(=O)(=O)N3CCCC3)ccc2N1C(C)=O` (centres unmarked), the “hERG current change (%, negative = inhibition) at 1uM” value is reported as 11.9%.
`CC1(C)Cc2noc(N)c2C(C)(C)N1O.Cl` was tested, and the “hERG current change (%, negative = inhibition) at 1uM” value was 3.45%.
With `COc1ccccc1OCC(=O)N1CCCC(Nc2ccc(C)c(C)c2)C1` (centres unmarked) the “hERG current change (%, negative = inhibition) at 1uM” value was 6.65%.
With `COc1ccc(N2CCN(C(=O)c3ccc(NS(=O)(=O)c4cccs4)cc3)CC2)cc1` the “hERG current change (%, negative = inhibition) at 1uM” value was -6.84%.
With `CC(=O)C1=C(O)C(=O)N(Cc2ccccc2)C1c1ccc(Cl)cc1` (centres unmarked) the “hERG current change (%, negative = inhibition) at 1uM” value was 11%.
With `O=C1Nc2ccc3sc4ccccc4c3c2C1=O` the “hERG current change (%, negative = inhibition) at 1uM” value was 11%.
`CC1Cc2cc(S(=O)(=O)CCC(=O)NC3CCCCC3)ccc2N1C(=O)C1CC1` (centres unmarked) was tested, and the “hERG current change (%, negative = inhibition) at 1uM” value was 16.2%.
`CCOc1cc(-c2noc(CCCC(=O)NC3CCCCC3)n2)ccc1OC` was tested, and the “hERG current change (%, negative = inhibition) at 1uM” value was 11.8%.
In the case of `CC(C)NC(=O)NC(=O)COC(=O)c1ccccc1O`, the “hERG current change (%, negative = inhibition) at 1uM” value is reported as 3.84%.
`CCCN1CCN(CCCNC(=O)c2ccc3c(=O)n(CCc4ccccc4)c(=O)[nH]c3c2)CC1` was tested, and the “hERG current change (%, negative = inhibition) at 1uM” value was 11.3%.
With `CC(=O)c1c(C(C)=O)c(C)n(NC(=O)c2cccnc2)c1C` the “hERG current change (%, negative = inhibition) at 1uM” value was 9.42%.
In the case of `O=C1c2cccc3cccc(c23)C(=O)N1CCN1CCN(C(=S)Nc2ccc(F)cc2)CC1`, the “hERG current change (%, negative = inhibition) at 1uM” value is reported as 10.7%.
In the case of `Cc1cc(S(=O)(=O)N2CCCC2C(=O)N2CCOCC2)c(C)cc1Cl` (centres unmarked), the “hERG current change (%, negative = inhibition) at 1uM” value is reported as -0.225%.
For `Cc1ccc(C(=O)NC2CCSC2=O)cc1` (centres unmarked), the “hERG current change (%, negative = inhibition) at 1uM” value was 16.5%.
`Cc1ccc(OCCOCCN2CCCCC2)c([N+](=O)[O-])c1.O=C(O)C(=O)O` was tested, and the “hERG current change (%, negative = inhibition) at 1uM” value was 5.7%.
In the case of `CCOC(=O)c1c(C)noc1CP(=O)(c1ccccc1)c1ccccc1`, the “hERG current change (%, negative = inhibition) at 1uM” value is reported as -4.82%.
In the case of `Cc1cc(C)cc(N(C(=O)CCC(=O)Nc2ccccn2)C(C(=O)NC(C)C)c2ccc(O)cc2)c1` (centres unmarked), the “hERG current change (%, negative = inhibition) at 1uM” value is reported as 1.99%.
